# Source: the supplement of paper PMC8728848
# This is one part of the list.
# Columns and labels:
# Experiment in all cases: glycan array binding signal (z-score within array); higher = stronger binding
# Conditions in all cases: glycan notation: IUPAC condensed, linker removed
# [1] = target: GlcNAc(b1-4)GlcNAc(b1-4)GlcNAc(b1-4)GlcNAc(b1-4)GlcNAc(b1-4)GlcNAc
# How it was run: (§1)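 Arrays were curated from the Consortium for Functional Glycomics database, 3228 in total, and kept only where the protein sequence was available. Binding is expressed as a within-array Z-score. This score was averaged across arrays of the same protein sequence at different concentrations or buffers and across linkers, and negative values can be read as non-binding.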
# [2] = target: GlcNAc(b1-4)[GlcNAc(b1-6)]GalNAc
# How it was run: as §1
# [3] = target: GlcNAc(b1-6)Gal(b1-4)GlcNAc
# How it was run: as §1
# [4] = target: GlcNAc(b1-6)GalNAc
# How it was run: as §1
# [5] = target: GlcNAc6S(b1-3)Gal(b1-4)GlcNAc
# How it was run: as §1
# [6] = target: Kdn(a2-3)Gal(b1-3)GalNAc
# How it was run: as §1
# [7] = target: Kdn(a2-3)Gal(b1-3)GlcNAc
# How it was run: as §1
# [8] = target: Kdn(a2-3)Gal(b1-4)Glc
# How it was run: as §1
# [9] = target: Kdn(a2-3)Gal(b1-4)GlcNAc
# How it was run: as §1
# [10] = target: Kdn(a2-3)Gal(b1-4)[Fuc(a1-3)]GlcNAc
# How it was run: as §1
# [11] = target: Kdn(a2-6)Gal(b1-4)GlcNAc
# How it was run: as §1
# [12] = target: Man(a1-2)Man(a1-2)Man(a1-3)Man
# How it was run: as §1
# [13] = target: Man(a1-2)Man(a1-2)Man(a1-6)[Man(a1-3)]Man
# How it was run: as §1
# [14] = target: Man(a1-2)Man(a1-3)Man
# How it was run: as §1
# [15] = target: Man(a1-2)Man(a1-3)[Man(a1-2)Man(a1-6)]Man
# How it was run: as §1
# [16] = target: Man(a1-2)Man(a1-3)[Man(a1-2)Man(a1-6)]Man(a1-6)[Man(a1-2)Man(a1-2)Man(a1-3)]Man
# How it was run: as §1
# [17] = target: Man(a1-2)Man(a1-3)[Man(a1-2)Man(a1-6)]Man(a1-6)[Man(a1-2)Man(a1-2)Man(a1-3)]Man(b1-4)GlcNAc(b1-4)GlcNAc
# How it was run: as §1
# [18] = target: Man(a1-2)Man(a1-3)[Man(a1-6)]Man(a1-6)[Man(a1-2)Man(a1-3)]Man(b1-4)GlcNAc(b1-4)GlcNAc
# How it was run: as §1
# [19] = target: Man(a1-2)Man(a1-6)[Man(a1-3)]Man(a1-6)[Man(a1-2)Man(a1-2)Man(a1-3)]Man
# How it was run: as §1
# [20] = target: Man(a1-2)Man(a1-6)[Man(a1-3)]Man(a1-6)[Man(a1-2)Man(a1-2)Man(a1-3)]Man(b1-4)GlcNAc(b1-4)GlcNAc
# How it was run: as §1
# [21] = target: Man(a1-3)[Man(a1-6)]Man
# How it was run: as §1
# [22] = target: Man(a1-3)[Man(a1-6)]Man(a1-6)[Man(a1-2)Man(a1-3)]Man(b1-4)GlcNAc(b1-4)GlcNAc
# How it was run: as §1
# [23] = target: Man(a1-3)[Man(a1-6)]Man(a1-6)[Man(a1-3)]Man
# How it was run: as §1
# [24] = target: Man(a1-3)[Man(a1-6)]Man(a1-6)[Man(a1-3)]Man(b1-4)GlcNAc(b1-4)GlcNAc
# How it was run: as §1
# [25] = target: Man(a1-3)[Man(a1-6)]Man(b1-4)GlcNAc(b1-4)GlcNAc
# How it was run: as §1
# [26] = target: Man(a1-3)[Man(a1-6)]Man(b1-4)GlcNAc(b1-4)[Fuc(a1-6)]GlcNAc
# How it was run: as §1
# [27] = target: Man(a1-6)Man
# How it was run: as §1
# [28] = target: Man(b1-4)GlcNAc
# How it was run: as §1
# [29] = target: MurNAc(b1-4)GlcNAc
# How it was run: as §1
# [30] = target: Neu5Ac(a2-3)Gal
# How it was run: as §1
# [31] = target: Neu5Ac(a2-3)Gal(b1-3)GalNAc
# How it was run: as §1
# [32] = target: Neu5Ac(a2-3)Gal(b1-3)GalNAc(b1-3)Gal(a1-4)Gal(b1-4)Glc
# How it was run: as §1
# [33] = target: Neu5Ac(a2-3)Gal(b1-3)GalNAc(b1-4)[Neu5Ac(a2-3)]Gal(b1-4)Glc
# How it was run: as §1
# [34] = target: Neu5Ac(a2-3)Gal(b1-3)GalNAc(b1-4)[Neu5Ac(a2-8)Neu5Ac(a2-3)]Gal(b1-4)Glc
# How it was run: as §1
# [35] = target: Neu5Ac(a2-3)Gal(b1-3)GalNAc6S
# How it was run: as §1
# [36] = target: Neu5Ac(a2-3)Gal(b1-3)GlcNAc
# How it was run: as §1
# [37] = target: Neu5Ac(a2-3)Gal(b1-3)GlcNAc(b1-2)Man
# How it was run: as §1
# [38] = target: Neu5Ac(a2-3)Gal(b1-3)GlcNAc(b1-2)Man(a1-3)[GlcNAc(b1-4)][Neu5Ac(a2-3)Gal(b1-3)GlcNAc(b1-2)Man(a1-6)]Man(b1-4)GlcNAc(b1-4)GlcNAc
# How it was run: as §1
# [39] = target: Neu5Ac(a2-3)Gal(b1-3)GlcNAc(b1-2)Man(a1-3)[Neu5Ac(a2-3)Gal(b1-3)GlcNAc(b1-2)Man(a1-6)]Man(b1-4)GlcNAc(b1-4)GlcNAc
# How it was run: as §1
# [40] = target: Neu5Ac(a2-3)Gal(b1-3)GlcNAc(b1-3)Gal(b1-3)GlcNAc
# How it was run: as §1
# [41] = target: Neu5Ac(a2-3)Gal(b1-3)GlcNAc(b1-3)Gal(b1-4)GlcNAc
# How it was run: as §1
# [42] = target: Neu5Ac(a2-3)Gal(b1-3)GlcNAc(b1-3)GalNAc
# How it was run: as §1
# [43] = target: Neu5Ac(a2-3)Gal(b1-3)GlcNAc(b1-4)Gal(b1-4)Glc
# How it was run: as §1
# [44] = target: Neu5Ac(a2-3)Gal(b1-3)GlcNAc(b1-6)GalNAc
# How it was run: as §1
# [45] = target: Neu5Ac(a2-3)Gal(b1-3)GlcNAc6S
# How it was run: as §1
binder,measurement,setting,value
Microvirin-2 (Microcystis aeruginosa) (protein) MPNFSHTCSSINYDPDSTILSAECQARDGEWLPTELRLSDHIGNIDGELQFGDQNFQETCQDCHLEFGDGEQSVWLVCTCQTMDGEWKSTQILLDSQIDNNDSQLEIGGSMPNFSHTCSSINYDPDSTILSAECQARDGEWLPTELRLSDHIGNIDGELQFGDQNFQETCQDCHLEFGDGEQSVWLVCTCQTMDGEWKSTQILLDSQIDNNDSQLEIG,glycan array binding signal (z-score),[1],-0.135
same,glycan array binding signal (z-score),[2],-0.138
same,glycan array binding signal (z-score),[3],-0.117
same,glycan array binding signal (z-score),[4],-0.122
same,glycan array binding signal (z-score),[5],-0.135
same,glycan array binding signal (z-score),[6],-0.098
same,glycan array binding signal (z-score),[7],-0.136
same,glycan array binding signal (z-score),[8],-0.118
same,glycan array binding signal (z-score),[9],-0.142
same,glycan array binding signal (z-score),[10],-0.124
same,glycan array binding signal (z-score),[11],-0.129
same,glycan array binding signal (z-score),[12],5.28
same,glycan array binding signal (z-score),[13],9.44
same,glycan array binding signal (z-score),[14],4.43
same,glycan array binding signal (z-score),[15],7.03
same,glycan array binding signal (z-score),[16],6.69
same,glycan array binding signal (z-score),[17],3.1
same,glycan array binding signal (z-score),[18],5.79
same,glycan array binding signal (z-score),[19],6.04
same,glycan array binding signal (z-score),[20],13.3
same,glycan array binding signal (z-score),[21],-0.129
same,glycan array binding signal (z-score),[22],7.25
same,glycan array binding signal (z-score),[23],-0.12
same,glycan array binding signal (z-score),[24],-0.013
same,glycan array binding signal (z-score),[25],-0.131
same,glycan array binding signal (z-score),[26],-0.053
same,glycan array binding signal (z-score),[27],-0.127
same,glycan array binding signal (z-score),[28],-0.127
same,glycan array binding signal (z-score),[29],-0.132
same,glycan array binding signal (z-score),[30],-0.129
same,glycan array binding signal (z-score),[31],-0.139
same,glycan array binding signal (z-score),[32],-0.125
same,glycan array binding signal (z-score),[33],-0.135
same,glycan array binding signal (z-score),[34],-0.12
same,glycan array binding signal (z-score),[35],-0.141
same,glycan array binding signal (z-score),[36],-0.143
same,glycan array binding signal (z-score),[37],-0.082
same,glycan array binding signal (z-score),[38],-0.115
same,glycan array binding signal (z-score),[39],-0.096
same,glycan array binding signal (z-score),[40],-0.136
same,glycan array binding signal (z-score),[41],-0.131
same,glycan array binding signal (z-score),[42],-0.128
same,glycan array binding signal (z-score),[43],-0.114
same,glycan array binding signal (z-score),[44],-0.127
same,glycan array binding signal (z-score),[45],-0.117
